Data from PubChem BioAssay AID1508624 (National Center for Advancing Translational Sciences (NCATS), 2021).
Screen size: about 48,000 compounds; about 120 (0.25%) were called active. Roughly 4% stayed inconclusive and do not appear here. The call rests on the fitted dose curve; in most records, active means well fitted activation curve with a large enough effect; inconclusive means small, poorly fitted or top-dose-only effect, or another doubt; inactive means no such curve, though single readings can be large or run the other way. The list shows a part of the results.

experiment: Primary qHTS for Identification of Small Molecule Activators of Huntingtin-Antisense Promoter Activity; conditions: HEK293 HTT-AS promoter firefly luciferase reporter, 24 h; series mostly up to 57.5 µM; activity change, positive = activation: at the top concentration; further: nearly all actives have a fitted effect of over 55% in size
Summary of the method: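 HEK293 Fluc reporter, 2,500 cells/well, 24 h pre-culture; cpds up to 57.5 uM final, 24 h 37 degrees C; Dual-Glo, 10 min RT; normalized vehicle = 0%, zero RLU = -100%.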

Activity change, positive = activation, inactive:
CCOc1ccc(NC(=O)CCc2c(C)nc3c(c(C)nn3-c3ccccc3)c2C)cc1 1.06%
CC1CN(c2cc3c(cc2F)c(=O)c(C(=O)O)cn3-c2ccc(F)cc2F)CCN1 (stereo not drawn) -7.55% [at 6 µM, percent change from vehicle, -100% = no light]
CCOc1ccc(NC(=O)CC2C(=O)N(c3cccc(C)c3)C(=O)N2CCC2=CCCCC2)cc1 (stereo not drawn) -55.4%
Cc1ccc(S(=O)(=O)n2nc(C)c(S(=O)(=O)N3CCCCC3)c2C)cc1 -9.91%
CCc1ccc(CN(Cc2ccco2)C(=O)c2ccc(C)cc2)cc1 -16.8%
CC(=O)Nc1ccccc1-c1nc2ccccc2n(C(C)C(=O)Nc2cccc(C)c2C)c1=O (stereo not drawn) -24.5%
O=C(Nc1ccccc1)N(Cc1cccs1)c1ccc(Cl)cc1 -15%
Cc1ccc(-n2c(=O)[nH]c3sc4c(c3c2=O)CCCC4)cc1 -2.2%
CC(=O)N(Cc1cccnc1)c1nc2cc(C)cc(C)c2s1 -4.09%
COc1cc(OC)c(NC(=O)CN(C)S(=O)(=O)c2ccc3c(c2)CCCC(=O)N3)cc1Cl -35.9%
CCc1ccc(C(=O)c2cn(CC(=O)Nc3cccc(C)c3C)c3nc(C)ccc3c2=O)cc1 -15.2%
COc1ccc(Cl)cc1NC(=O)CN1C(=O)CSc2ccc(S(=O)(=O)N3CCCC3)cc21 -36.2%
COc1ccccc1C(=O)N(Cc1ccco1)Cc1ccccc1F -32.4%
Cc1ccccc1C(=O)N1CCCCC1CCN1CCCCC1 (stereo not drawn) -2.26%
COc1ccc(N2CCN(C(=O)CCc3c(C)nc4cc(-c5cccc(F)c5)nn4c3C)CC2)cc1 -63.1%
CC(=O)N1CCc2c(sc3c2c(=O)n(-c2ccccc2)c(=O)n3Cc2cccc(C(F)(F)F)c2)C1 -37.4%
CCOC(=O)c1cnc2c(ccc3ccccc32)c1Nc1ccc(OC)cc1OC -23.9%
COc1cccc(N=C2SC(C(=O)Nc3cccc(Cl)c3)CC(=O)N2C)c1 (stereo not drawn) -27.3%
CSc1ncc(C(=O)N2CCN(c3ccc(Cl)cc3)CC2)c(C)n1 -16.5%
CCc1nn(CC(=O)NCCCN2CCN(C)CC2)c(=O)c2cc3occc3n12 -3.71%
COc1ccc(C(=O)c2c(N)c(-c3nc(-c4ccccc4)cs3)c3ccccn23)cc1 3.19%
COc1ccc(C)cc1NC(=O)c1oc2ccc(S(=O)(=O)N3CCOCC3)cc2c1C 2.96%
COC(=O)c1c(NC(=O)COc2ccc(Cl)cc2C)sc2c1CCCCC2 -17.8%
COc1ccc(OC)c(NC(=O)CSC2=Nc3ccccc3C3=NC(CCC(=O)NC4CCCCC4)C(=O)N23)c1 (stereo not drawn) -14.5%
Cc1cccc(N2CCN(C(=O)CCCn3ncn4c(cc5occc54)c3=O)CC2)c1C -30.2%
CCOc1cc(CNCCSc2nnnn2C)cc(Cl)c1OCc1ccc(Cl)cc1 -54.1%
O=C(NCC(c1cccnc1)N1CCc2ccccc2C1)C(=O)Nc1cccc(Cl)c1 (stereo not drawn) -18.7%
O=C(Cc1ccc(F)cc1)Nc1cccc(-c2nc3cccnc3s2)c1 2.6%
COc1ccc(-c2cc(C(=O)NCCc3ccccc3)c3c(-c4ccccc4)[nH]nc3n2)cc1 -0.501%
Cc1ccc(CCNS(=O)(=O)c2ccc3c(c2)CCN3C(=O)CCC(=O)O)cc1 1.23%
CCc1ccc(NC(=O)CCc2c(C)n(C)c3cc(-c4ccccc4C)nn3c2=O)cc1 -2.29%
COc1cc(C2CC(=O)N(CC(=O)Nc3ccccc3F)c3ccccc3S2)cc(OC)c1OC (stereo not drawn) -36.1%
Cc1ccc(CCNC(=O)c2ccc(CSc3nc4ccncc4n3Cc3ccc(F)cc3)cc2)cc1 -17.9%
Cc1ccc(-n2nc(CO)c(C(=O)NC(C)c3ccccc3)n2)cc1C (stereo not drawn) -33.5%
COC(=O)c1sc2ccccc2c1S(=O)(=O)N1CCN(c2ccc(C(C)=O)cc2)CC1 -21.4%
COC(=O)c1ccccc1NC(=O)CCc1c(C)nc2cc(-c3ccc(Cl)cc3)nn2c1C -74.7%
CC(=O)c1cc(-c2ccc(F)cc2)n(CCC(=O)NC2CCCCC2)c1C -21.2%
CC(C)CNc1cc(NC2CCCCC2)c2c3c(onc13)-c1ccccc1C2=O -22%
Cc1ccc(Cl)cc1N1CCN(C(=O)c2cn(C)c3ccc(S(=O)(=O)N4CCCCC4)cc3c2=O)CC1 -4.16% [at 11.5 µM, percent change from vehicle, -100% = no light]
CSc1ccc(CCNC(=O)CCc2c(C)nc3c4cccnc4nn3c2C)cc1 -15.8%
O=C(Nc1ccc(F)c(F)c1)c1ccc(F)c(S(=O)(=O)N2CCC3(CC2)OCCO3)c1 -84.9%
COc1cccc(CNCc2c(C(=O)O)c(C)n(Cc3ccc(F)cc3Cl)c2C)c1OC -9.68%
O=C(CC1N=C2c3ccccc3N=C(SCc3cccc(F)c3)N2C1=O)NC1CCCCC1 (stereo not drawn) -10.5%
CCSc1nc2sc3c(c2c(=O)n1-c1ccc(C)cc1)CCCC3 -29.1%
CCOC(=O)/C=C(C)/C=C/C=C(C)/C=C/c1c(C)cc(OC)c(C)c1C -8.24%
O=C(Cn1c(=O)n(Cc2ccco2)c(=O)c2sc3ccccc3c21)Nc1ccccc1C(F)(F)F -11.2%
Cc1nc2nc(C)c(CCC(=O)NCc3cccc(Cl)c3)c(C)n2n1 -18%
Cc1ccc(-n2nc(C)c3c(C)c(CCC(=O)NCc4ccccc4Cl)c(C)nc32)cc1 -16.5%
COc1ccc(C2=C(C(C)=O)Sc3nnc(-c4ccccc4)n3N2C(C)=O)cc1 -0.898%
COc1cc(NC(=O)c2cc3cc4cc(OC)ccc4nc3o2)cc(OC)c1 -5.54%
CCCCNC(=O)NS(=O)(=O)c1ccc(N)cc1 -9.39%
CCOc1cc(C2NC(=O)c3c(sc4c3CCN(C)C4)N2)ccc1OC(=O)c1ccc(F)cc1 (stereo not drawn) 6.89%
CCOc1ccccc1N=Nc1c(C)[nH]n(-c2nc(-c3ccccc3)cs2)c1=O -7.4%
COc1ccc(CC(=O)Nc2ccc(-c3nc4ccccc4s3)c(C)c2)cc1 20.2%
COc1ccc(NC(=O)c2ccc3oc(=O)c(S(=O)(=O)c4ccc(F)cc4)cc3c2)c(OC)c1 -67.5%
CC(C)c1nc2sc3c(N4CCCCC4)ncnc3c2c2c1CCCC2 -8.96%
CCOc1ccc(-n2c(SCC(=O)c3ccccc3)nc3c([nH]c4ccccc43)c2=O)cc1 -7.1%
CC1(C)Cc2c(-c3ccccc3)c(-c3ccc(Cl)cc3)c(CC(=O)O)n2C1 -31.4%
